# Measured values: PubChem BioAssay AID485344 (National Center for Advancing Translational Sciences (NCATS), 2010)
# The campaign covered roughly 340,000 compounds. About 6,900 (2%) were called active. Rule as the data show it: active = inhibition above about 30%; inactive = below that, where a call was filed. The list shows a part of the results, in another mix than the full data. Where no call is shown, the source filed none.
# Molecular target: D(2) dopamine receptor (Homo sapiens) (UniProt P14416)
# Test: HTS Assay for Allosteric Antagonists of the Human D2 Dopamine Receptor: Primary Screen for Antagonists; also: 0% is about no effect
# Settings: HEK293 TREx D2 cells, calcium flux, dopamine EC80; at 10 µM; stronger effect = higher value
# Outline: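 Tetracycline-induced HEK293 TREx cells expressing D2 receptor forced-coupled to calcium signalling, loaded with no-wash calcium dye. Compounds added and calcium flux read 180 s, then dopamine added at EC80 and read a further 180 s.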
# UniProt P14416, sequence (P14416 whole entry, looked up): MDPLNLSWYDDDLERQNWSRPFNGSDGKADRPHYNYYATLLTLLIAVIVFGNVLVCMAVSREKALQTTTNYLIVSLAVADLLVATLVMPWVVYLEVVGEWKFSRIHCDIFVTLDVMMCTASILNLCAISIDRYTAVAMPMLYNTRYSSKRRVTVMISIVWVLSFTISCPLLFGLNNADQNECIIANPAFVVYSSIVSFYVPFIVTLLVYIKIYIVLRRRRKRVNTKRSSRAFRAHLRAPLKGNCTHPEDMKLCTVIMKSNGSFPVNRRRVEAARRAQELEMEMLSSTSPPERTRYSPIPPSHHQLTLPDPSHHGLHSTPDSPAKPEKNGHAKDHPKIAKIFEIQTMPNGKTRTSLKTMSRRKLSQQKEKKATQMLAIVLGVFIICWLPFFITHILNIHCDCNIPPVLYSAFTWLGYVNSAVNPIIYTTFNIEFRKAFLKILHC
row,SMILES,inhibition
1,Cc1oc(-c2ccccc2F)nc1CSCC(=O)NCc1ccccc1,5.41%
2,COc1ccc2c(c1)CC(C(=O)Nc1cccc(C)c1C)CO2 (stereo not drawn),5.67%
3,CC(C)c1ccc(NC(=O)C2CCCN(S(=O)(=O)c3cccc4nsnc34)C2)cc1 (stereo not drawn),10.6%
4,COc1ccccc1CNS(=O)(=O)c1cc(Br)cc2c1N(C(C)=O)C(C)C2 (stereo not drawn),-17.7%
5,CCc1ccc(CNC(=O)C2CCCN(c3nnc(C)c4c(C)n(-c5ccc(OC)cc5)nc34)C2)cc1 (stereo not drawn),-22.7%
6,Cc1c(C(=O)Nc2ccccc2Cl)sc2ncnc(N(C)C3CCCCC3)c12,17.7%
7,COc1cc(Cl)c(NC(=O)c2cc(CN3CCCC3)on2)c(OC)c1,-3.71%
8,Cc1ccc(N2CC(c3nnc(Cc4ccc(F)cc4)o3)CC2=O)cc1 (stereo not drawn),8.1%
9,Cc1ccc(CSc2ncc(Cl)c(C(=O)Nc3nc4ccc(C)cc4s3)n2)cc1,-27.2%
10,Oc1c(C(c2ccccc2)N2CCN(c3cccc(Cl)c3)CC2)sc2nc(-c3ccco3)nn12 (stereo not drawn),16.2%
11,O=c1c(=O)n(-c2ccccc2)ccn1Cc1cccc(C(F)(F)F)c1,-9.55%
12,Cc1ccc(NC(=O)c2cc3nc(-c4ccc5c(c4)OCO5)cc(C(F)(F)F)n3n2)cc1Cl,3.74%
13,O=C(NCc1ccc(F)cc1)c1ccc(CS(=O)Cc2ccc(Cl)cc2)o1 (stereo not drawn),-0.641%
14,O=C(NCCn1cc(SCc2ccccc2F)c2ccccc21)c1cccs1,20%
15,CCc1ccc(CNC(=O)CSc2c3c(nc4ccc(Cl)cc24)CCCC3)cc1,13.5%
16,CCS(=O)(=O)NCC(c1ccco1)N1CCN(c2ccccc2)CC1 (stereo not drawn),-14.4%
17,CSc1nc(Nc2ccc(C)cc2)c(C#N)c(-c2ccccc2)n1,4.66%
18,Cc1ccc2c(c1)C(c1ccccc1)N(C(=O)c1ccc(S(=O)(=O)N3CCCCC3)cc1)CC(=O)N2 (stereo not drawn),-5.86%
19,Fc1ccc(C(Nc2ccccc2Cl)c2nnc(-c3ccccc3Cl)o2)cc1 (stereo not drawn),14.7%
20,Cc1ccc(NC(=O)c2cccc(N3CCCS3(=O)=O)c2)cc1C,-3.38%
21,Cc1ccc(NC(=O)[C@H]2O[C@@H]3OC(C)(C)O[C@@H]3[C@H]3OC(C)(C)O[C@H]32)cc1F,1.18%
22,CC(C(=O)Nc1ccccc1C(F)(F)F)n1nnc2sc3c(c2c1=O)CCCC3 (stereo not drawn),7.28%
23,Cc1ccc(NC(=O)CN(C)S(=O)(=O)c2cccc3cccnc23)cc1F,5.93%
24,Clc1ccccc1CSc1nnc(-c2ccco2)c(-c2ccco2)n1,active: 34.6%

row,SMILES,inhibition
1,CCn1c(=O)c2cc(C(=O)N3CCN(c4cccc(OC)c4)CC3)sc2c2ccccc21,21.5%
2,CCOC(=O)Cc1ccc(NC(=O)N2CCc3c(sc4c3CCCC4)C2c2ccc(F)cc2)cc1 (stereo not drawn),-1.8%
3,COc1ccc(Cl)cc1Nc1nc2ccc(C(=O)c3ccccc3)cc2n2cnnc12,13.1%
4,CN(CC(=O)Nc1ccc(Cl)cc1F)S(=O)(=O)c1ccc2c(c1)n(C)c(=O)c(=O)n2C,13.8%
5,Cc1cc(=O)oc2c3c(cc(OCC(=O)NCC(=O)N[C@H](C(=O)O)C(C)C)c12)OC(C)(C)CC3,active: 30.1%
6,CCc1ccc(C(c2ccccc2)c2c[nH]c3ccc(C)cc23)s1 (stereo not drawn),-6.49%
7,Cc1ccccc1NC(=O)C(=O)NCC1(c2ccccc2)CCCC1,-24.9%
8,COc1ccc(Cl)cc1NC(=O)c1cnc(SC)nc1-c1ccccc1,-3.17%
9,CCN1CCN(c2ncc3c(n2)CCN(Cc2sccc2C)C3)CC1,-21.6%
10,COc1cc(NC(=O)CC(C)S(=O)(=O)c2ccc3c(c2)CCN3C(C)=O)cc(OC)c1OC (stereo not drawn),2.43%
11,Cc1cc2[nH]c(=O)c(=O)[nH]c2cc1S(=O)(=O)N1CCN(c2cccc(C(F)(F)F)c2)CC1,-9.57%
12,Cc1cccc(-n2cc(-c3ccccc3)c3c(N4CCC(C)CC4)ncnc32)c1,12.7%
13,CCCCN(CC)CCNC(=O)CCn1cnc2onc(-c3ccc(F)cc3)c2c1=O,2.91%
14,COc1ccc(NC(=O)c2sc3nc(-c4cc5ccc(OC)cc5oc4=O)[nH]c(=O)c3c2C)cc1,13.6%
15,COc1ccc(-c2cn3nc(N4CCCC(C(=O)Nc5cc(C)ccc5C)C4)sc3n2)cc1 (stereo not drawn),-7.58%
16,COc1cc(NC(=O)NCC2CCN(Cc3ccccc3Cl)CC2)cc(OC)c1OC,-6.46%
17,CSc1ccccc1NC(=O)Nc1ccc(Cl)cc1,active: 31.2%
18,Cc1ccc(C)c(NC(=O)Cn2nnc(C(=O)NCc3ccccc3Cl)c2N)c1,-26.9%
19,Fc1ccc(-n2ncc3c(NCCCn4ccnc4)ncnc32)cc1,-3.29%
20,COc1cccc(C2NC(=O)c3n[nH]c(-c4cccs4)c32)c1 (stereo not drawn),10.7%
21,COc1ccc(Br)cc1CNC(=O)c1cnc2sc(N3CCCC3)nn2c1=O,-1.51%
22,CN1CCN(C(CNC(=O)c2ccccc2F)c2ccc3c(c2)OCO3)CC1 (stereo not drawn),-1.03%
23,O=C(Cn1c(=O)nc(-c2ccccc2)c2ccccc21)NCCc1ccc(Cl)cc1,0.812%
24,COc1ccc(C(=O)N(Cc2cc(OC)c(OC)c(OC)c2)c2ccccn2)cc1,-3.02%
